This is one part of the list. One pool of 16,384 single-stranded DNAs met each Rep nickase domain in vitro at 3 µM enzyme and 37 °C for 1 h; the strands have 90 letters, of which the middle is given. Uncut reads are compared with the no-enzyme pool on a log2 scale; uncut sequences lie near 0, cut ones below; no hit call is given. The scaling is to total reads; values above 0 arise when much of the pool is cut.
test system: T1, Rep nickase domain of maize striate mosaic virus; assay: uncleaved DNA left, log2 of reads against the no-enzyme library (log2 ratio); higher = less cleavage (more negative = more Rep cleavage of the k-mer); sequences stand for … in CTCGTCCG…ACCGGAGA
T1 sequence (residues 1-117 of Rep, tag left off): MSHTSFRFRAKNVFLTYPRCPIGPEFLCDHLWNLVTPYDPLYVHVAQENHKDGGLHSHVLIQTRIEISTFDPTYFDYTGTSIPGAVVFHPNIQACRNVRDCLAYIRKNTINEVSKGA
Experimental: (§1)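 A pool of 90-nt single-stranded DNAs with seven random bases just before the constant AC of the nick site (name = the seven bases) was cut by 3 µM recombinant His6-SUMO-tagged Rep nickase domain (300 nM DNA, 50 mM HEPES pH 8.0, 50 mM NaCl, 1 mM MnCl2, 1 h, 37 °C, three replicates). Uncut DNA was amplified and sequenced.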

Sequence	uncleaved DNA left (log2)
GACAGTG	-0.812
AATGGGC	-0.319
TTCGCGG	1.47
AGGGGGA	1.21
ATATTCG	-0.774
ATACCAC	-0.0799
GACCAAT	0.746
CTACCGT	-0.96
ATAAAAG	-0.975
GCCCGTT	0.438
GCATTAT	-0.0215
TGTCGAC	0.146
TTTTAGC	-1.17
GTGAAGT	0.729
CCACCCC	-0.277
CAGTTGG	-1.25
AGCGCAG	1.31
CACGATA	-0.574
GGGGTCT	2.25
GGTAATC	2.03

Sequence	uncleaved DNA left (log2)
TGGACAA	2.43
AATGGAT	1.75
GAACTGC	0.164
GAACGAT	1.39
CCATATA	-0.94
CTGGCGA	-0.649
CATTGGC	-1.29
TGAAACC	0.945
AAAGCTG	1.77
ATGTAGC	-1.07
TTTCAGA	-0.553
ATCTATA	-0.769
CTTCGCT	-0.976
CGCAGGG	-0.357
TCAGTCT	-0.591
TCTTTCG	-1.15
GCCTTCG	-0.875
CCACCAG	-1.1
CGATCCA	-0.195
CCAGCAA	-0.864

test system: T2, Rep nickase domain of porcine circovirus 2; assay: as above
T2 sequence (residues 2-116 of Rep, tag left off): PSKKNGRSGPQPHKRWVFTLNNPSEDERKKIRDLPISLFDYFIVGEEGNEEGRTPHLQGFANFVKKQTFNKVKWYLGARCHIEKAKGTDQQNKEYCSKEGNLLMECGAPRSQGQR
Experimental: as §1

Sequence	uncleaved DNA left (log2)
GACAGTG	0.231
AATGGGC	0.157
TTCGCGG	0.185
AGGGGGA	0.185
ATATTCG	0.179
ATACCAC	-0.0877
GACCAAT	-0.409
CTACCGT	-0.389
ATAAAAG	0.266
GCCCGTT	0.164
GCATTAT	-0.477
TGTCGAC	-0.116
TTTTAGC	0.0826
GTGAAGT	0.0356
CCACCCC	-0.832
CAGTTGG	-0.222
AGCGCAG	0.11
CACGATA	-0.116
GGGGTCT	0.159
GGTAATC	0.307

Sequence	uncleaved DNA left (log2)
TGGACAA	0.321
AATGGAT	0.0121
GAACTGC	0.0404
GAACGAT	0.101
CCATATA	-0.0572
CTGGCGA	0.117
CATTGGC	0.0871
TGAAACC	-0.391
AAAGCTG	0.254
ATGTAGC	0.181
TTTCAGA	0.0229
ATCTATA	-0.27
CTTCGCT	0.00696
CGCAGGG	0.204
TCAGTCT	-0.206
TCTTTCG	0.107
GCCTTCG	0.153
CCACCAG	-0.0621
CGATCCA	-0.0273
CCAGCAA	0.015

test system: T3, Rep nickase domain of tomato golden mosaic virus; assay: as above
T3 sequence (residues 1-124 of Rep, tag left off): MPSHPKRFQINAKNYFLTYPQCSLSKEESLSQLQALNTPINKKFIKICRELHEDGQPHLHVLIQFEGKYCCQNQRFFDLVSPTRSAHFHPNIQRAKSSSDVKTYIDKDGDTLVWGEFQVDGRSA
Experimental: as §1

Sequence	uncleaved DNA left (log2)
GACAGTG	0.0625
AATGGGC	0.0138
TTCGCGG	0.189
AGGGGGA	0.0863
ATATTCG	0.0188
ATACCAC	0.13
GACCAAT	-0.00268
CTACCGT	-0.121
ATAAAAG	0.0779
GCCCGTT	0.166
GCATTAT	0.0998
TGTCGAC	-0.0802
TTTTAGC	-0.192
GTGAAGT	0.0611
CCACCCC	-0.194
CAGTTGG	-0.113
AGCGCAG	0.14
CACGATA	-0.0118
GGGGTCT	0.0597
GGTAATC	0.0574

Sequence	uncleaved DNA left (log2)
TGGACAA	0.208
AATGGAT	0.072
GAACTGC	0.0564
GAACGAT	0.051
CCATATA	0.094
CTGGCGA	-0.0882
CATTGGC	-0.193
TGAAACC	0.0993
AAAGCTG	0.093
ATGTAGC	0.185
TTTCAGA	-0.0365
ATCTATA	0.0113
CTTCGCT	-0.0632
CGCAGGG	0.0284
TCAGTCT	-0.207
TCTTTCG	-0.0181
GCCTTCG	0.0573
CCACCAG	-0.11
CGATCCA	-0.036
CCAGCAA	0.116

test system: T4, Rep nickase domain of tomato yellow leaf curl virus; assay: as above
T4 sequence (residues 1-136 of Rep, tag left off): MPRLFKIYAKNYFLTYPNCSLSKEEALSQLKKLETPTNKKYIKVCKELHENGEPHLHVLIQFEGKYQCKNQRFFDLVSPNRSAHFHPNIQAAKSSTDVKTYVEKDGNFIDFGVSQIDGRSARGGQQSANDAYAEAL
Experimental: as §1

Sequence	uncleaved DNA left (log2)
GACAGTG	0.0975
AATGGGC	-0.029
TTCGCGG	-0.12
AGGGGGA	-0.122
ATATTCG	0.149
ATACCAC	-0.0177
GACCAAT	-0.0205
CTACCGT	-0.249
ATAAAAG	0.0659
GCCCGTT	0.0998
GCATTAT	0.0477
TGTCGAC	0.0132
TTTTAGC	-0.151
GTGAAGT	0.0728
CCACCCC	-0.144
CAGTTGG	-0.0294
AGCGCAG	-0.00909
CACGATA	-0.171
GGGGTCT	0.117
GGTAATC	0.136

Sequence	uncleaved DNA left (log2)
TGGACAA	0.202
AATGGAT	-0.171
GAACTGC	-0.0952
GAACGAT	-0.0457
CCATATA	-0.112
CTGGCGA	0.0768
CATTGGC	0.0289
TGAAACC	0.167
AAAGCTG	-0.0191
ATGTAGC	0.158
TTTCAGA	-0.0554
ATCTATA	-0.0502
CTTCGCT	-0.0734
CGCAGGG	-0.0334
TCAGTCT	-0.225
TCTTTCG	-0.069
GCCTTCG	0.069
CCACCAG	-0.0547
CGATCCA	0.00495
CCAGCAA	-0.1

test system: T5, Rep nickase domain of wheat dwarf virus; assay: as above
T5 sequence (residues 1-137 of Rep, tag left off): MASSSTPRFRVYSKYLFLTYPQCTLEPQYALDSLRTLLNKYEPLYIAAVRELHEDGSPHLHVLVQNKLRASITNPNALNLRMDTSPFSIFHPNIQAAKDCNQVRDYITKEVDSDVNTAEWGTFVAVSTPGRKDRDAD
Experimental: as §1

Sequence	uncleaved DNA left (log2)
GACAGTG	-0.0328
AATGGGC	-0.0145
TTCGCGG	0.0475
AGGGGGA	0.0691
ATATTCG	-0.136
ATACCAC	0.0593
GACCAAT	0.0827
CTACCGT	-0.214
ATAAAAG	0.0497
GCCCGTT	-0.0656
GCATTAT	0.0723
TGTCGAC	-0.0858
TTTTAGC	-0.104
GTGAAGT	0.169
CCACCCC	-0.0754
CAGTTGG	-0.167
AGCGCAG	0.0962
CACGATA	-0.12
GGGGTCT	0.201
GGTAATC	0.313

Sequence	uncleaved DNA left (log2)
TGGACAA	0.294
AATGGAT	0.0297
GAACTGC	0.096
GAACGAT	0.0305
CCATATA	-0.0883
CTGGCGA	-0.103
CATTGGC	-0.163
TGAAACC	0.178
AAAGCTG	0.169
ATGTAGC	-0.0882
TTTCAGA	-0.121
ATCTATA	-0.0658
CTTCGCT	-0.115
CGCAGGG	0.0292
TCAGTCT	-0.228
TCTTTCG	-0.0943
GCCTTCG	-0.154
CCACCAG	-0.165
CGATCCA	-0.00581
CCAGCAA	-0.0715
